# The campaign covered roughly 150,000 compounds. About 540 (0.36%) showed an effect of 50% or more. The list shows a part of the results.
# System: Plasmodium falciparum
# Test: Primary screen in NF54 nanoGlo assay, in single point, at 2uM, 72h; a lower Z score goes with more inhibition
# Format: functional, Erythrocyte
# Settings: timepoint 72 hour
SMILES,% Inhibition [%],Z score
CC(C)N1C[C@@H](C(=O)NCc2cccc(-c3ccccc3)c2)CCC1=O,-2,0.43
CCc1noc(C)c1C(=O)N1CCOC[C@H]1c1ncn(CC(F)(F)F)n1,3,-0.53
O=S(=O)(Cc1ccccc1)N[C@H]1CO[C@H]2[C@@H]1OC[C@@H]2Nc1nccc(-c2ccco2)n1,-4,0.73
O=C1[C@@H]2C[C@H](O)CCN2C(=O)CN1Cc1ccccc1C(F)(F)F,-14,1.43
CCN1CCC[C@@H]1Cn1cc(CCc2ccccc2)nn1,12,-1.6
CC(C)(C)n1ncnc1CN1CCC[C@H](CN2CCOCC2)C1,-8,1.22
NC(=O)c1ccc(O[C@H]2COCC[C@@H]2NC(=O)c2c(O)cccc2F)cc1,-2,0.28
CC(C)n1cc(NC(=O)N2CCC3CCCCC32)cn1 (stereo not given),-6,0.82
O=C(O)c1cc2nc(-c3ccccc3)ccc2[nH]1,16,-1.83
O=C(Nc1cccc(C(F)(F)F)c1)N1CCc2c(c3ccccc3n2CC2CC2)C1,-1,0.17
O=C(c1cccc(C2CC2)c1)N1CCN(c2cnccn2)CC1,-6,0.68
CS(=O)(=O)N1CCC(C(=O)N2CCOc3ccc(F)cc3C2)CC1,-10,1.21
CC(C)C(=O)Nc1ccc(-c2cc(-c3ccc(NC(=O)C(C)C)cc3)nc(-c3ccncc3)n2)cc1,38,-10.15
CC1Nc2ncnn2C(c2cccc(O)c2)C1C(N)=O (stereo not given),-18,2.13
C=CCN(Cc1csc(COc2cc(C)cc(C)c2C)n1)C(=O)c1ccco1,-8,1.48
CCN(CC)S(=O)(=O)c1cccc(C(=O)OCC(=O)Nc2ccc(C(=O)Nc3ccccc3OC)cc2)c1,-8,1.1
O=C(Nc1ccc(F)cc1F)[C@@H](F)C(F)(F)F,-10,1.53
Cc1cc(C)n(Cc2c(C(=O)NCc3ccc(N(C)C)cc3)noc2C)n1,-13,1.35
O=C1CCN(C(=O)CN2CCCC2=O)CCN(c2nc(C3CCCCC3)ns2)CCN1,-2,0.24
O=C(C1CCOC1)N1CCC1c1ccc(Cl)cc1 (stereo not given),26,-2.93
COc1ccccc1N1CCN(c2ccc(-c3nc(-c4ccccc4)no3)nn2)CC1,0,-0.08
CCCCn1nc(Cn2cncn2)nc1C[C@@H]1NC(=O)c2ccccc21,-8,1.2
C[C@H](OC(=O)c1cccc(C(N)=O)c1)C1CC1,-9,1.47
CN1CC[C@H](c2nc3cc(F)ccc3[nH]2)C1,-1,0.12
CCC(=O)N[C@@H]1c2ccccc2C2(CCN(C(=O)c3ccoc3)CC2)[C@H]1OCCOC,8,-1.08
Cc1ccccc1[C@@]1(CC(=O)NCCc2cnn(C)c2)CCOC(C)(C)C1,-15,1.54
O=C1CN(C(=O)Nc2cnn(CCF)c2)[C@H](c2ccccc2)CN1,-3,0.52

SMILES,% Inhibition [%],Z score
Cc1ccc(C2C(C)CCCN2CC(O)CN2C(=O)CCC2=O)cc1 (stereo not given),-12,1.03
O=C(c1cc2c(s1)CCCC2)N1CCC[C@H]1c1ccc2c(c1)OCCCO2,-10,1.15
O=C(CCn1cncn1)N1CCN(C(=O)c2ccccc2)CC1,2,-0.27
O=C(CN1CCN(C(=O)Nc2ccc(Cl)cc2)CC1=O)N1CCN(c2ccccc2F)CC1,0,0.08
C[C@@H]1CN(C(=O)c2cc3c([nH]2)CCCC3)C[C@H](C)N1CCO,4,-0.44
CCc1cccc(C)c1NC(=O)Cn1nc(-c2ccco2)c2sc(N3CCOCC3)nc2c1=O,4,-0.65
CCc1nn(C)c(Cl)c1CN1CCC[C@](CCCOC)(C(=O)O)C1,-4,0.64
O=C(CN(CC(F)F)CC1CCC=CO1)NC(c1ccccc1)C1CC1 (stereo not given),-7,0.89
COCC(=O)N1CCN(c2nc(C3CC3)nc(C)c2Cc2c(F)cccc2Cl)CC1,5,-0.93
Cc1nc(C(=O)N2CC[S+]([O-])CC(C)C2)c(-c2ccccc2)s1 (stereo not given),-3,0.4
Cc1nc(C(=O)N(Cc2cncs2)C2CC2)cs1,-10,1.86
Cc1noc(C)c1CN[C@H]1CCc2nnc(-c3ccc(F)cc3)n2C1,-7,1.36
CCc1nc(CN(CCO)Cc2ccc(F)cc2)n[nH]1,-6,0.93
COc1ccc(-c2ccc(N3CCCN(C(=O)CN(Cc4ccco4)C(=O)c4ccc(Cl)cc4)CC3)nn2)cc1OC,-19,2.47
Cc1cc(C)cc(-c2cc3nc(C)cc(N4CCC(C(=O)NCc5cccc(F)c5)CC4)n3n2)c1,75,-14.36
CC(C)NC(=O)[C@@H]1C[C@H](N)CN1C(=O)CCCc1c[nH]c2ccccc12,-2,0.24
CCCc1nnc(-c2cccnc2N2CCN(C(=O)Nc3ccccc3CC)CC2)o1,-4,0.71
O=C1CCC2CN(Cc3cnc4ccccc4n3)CCC2N1C1CC1 (stereo not given),-8,1.3
CC(C)c1ccc(NC(=O)Cn2cnc3c(-c4ccc(F)cc4)nsc3c2=O)cc1,-1,0.2
COc1cc(CCNC(=O)N2CCO[C@H](c3cccc(Cl)c3)[C@H]2C)ccn1,-12,1.39
CC[C@H](C)NC(=O)Nc1cccc(-c2noc(-c3sc(C)nc3C)n2)c1,-12,1.23
COc1ccccc1-c1nc(Cn2nnc(-c3nc(-c4ccccn4)no3)c2C)c(C)o1,2,-0.31
CCOc1ccc(N(CC(=O)NCCN2CCOCC2)S(C)(=O)=O)cc1,-9,1.38
C[C@H]1CN(CCO)CCN1Cc1ccc(Cl)cc1-n1cncn1,-2,0.24
Cc1cc(C)c(NC(=O)Cn2cc(-c3nc(-c4ccc(Cl)cc4)no3)ccc2=O)c(C)c1,1,-0.11
CCc1ccc(CNC(=O)[C@@H]2Cn3cccc3C(=O)N2)cc1,2,-0.28
COc1ccc(C)c2sc(N(CCN3CCOCC3)C(=O)c3ccn(C)n3)nc12,-18,3.16

SMILES,% Inhibition [%],Z score
Cc1ccccc1CN1CCNC(=O)[C@@H]1c1c(C)nn(-c2ccccc2)c1C,-2,0.43
COC(=O)CN(C(=O)c1cnc(OC)c(Cl)c1)c1cccc(C)n1,-6,0.99
Cc1nccc(NC(=O)N(CCO)CC(F)F)n1,-10,1.36
CCC(=O)Nc1ccc2c(c1)c(=O)n(-c1ccccc1)n2CC(=O)Nc1c(C)cccc1C,3,-0.37
Cn1nccc1C(=O)NC[C@H]1CCCN(C(=O)c2ccc3scnc3c2)C1,-7,1.06
Cc1cccc(CN2CCC[C@@]3(CCN(C(=O)c4oc(C)cc4C)C3)C2)c1,7,-1.2
COc1cccc(-c2nn([C@@H](C)C(=O)Nc3c(C)cc(C)cc3C)c(=O)c3noc(C)c23)c1,-8,0.76
C#CCCCn1ncc2c(OC)nc(N)nc21,1,-0.09
Cn1cc(C(=O)N[C@H]2CCN(c3ccc(F)c(Cl)c3)C2)cn1,-3,0.57
O=C(Cc1cccs1)NC[C@H]1CCCN(C(=O)c2nc3ncccn3n2)C1,-8,1.56
CCOC(=O)c1cnc(N2CCN(Cc3ccno3)CC2)s1,-13,1.82
O=S(=O)(NCC1(CO)CCC1)C1CC1,0,0.04
O=S(=O)(NCc1ccc(-n2cncn2)nc1)N1CCCCC1,-14,2.21
Cn1cc(-c2ccccc2)c(NC(=O)NCCc2ccc(F)c(F)c2)n1,-2,0.3
CC(C)c1ncc(CN2CCC3(CCC(=O)N(CCN(C)C)C3)CC2)cn1,3,-0.43
Cn1nc(-c2ccccc2)c(CN(C[C@H]2CCCO2)C(=O)c2ccccc2Cl)c1Oc1ccc(Cl)cc1,3,-0.44
Cc1nnsc1CN(C)C(=O)CN1C(=O)OC[C@@H]1c1ccccc1,-10,1.14
CCc1ncncc1C(=O)NS(=O)(=O)c1ccc(C2CCCCC2)cc1,22,-2.89
Cc1noc(C)c1CC(=O)NC1(c2ccc(Cl)c(Cl)c2)CC1,2,-0.16
Cc1cccc([C@H]2CCCN(C(=O)CCn3nnnc3C)C2)c1,-3,0.34
CN1CCCN(CC(=O)N2CC[C@@H]3OCc4cccc(c4)Oc4cccc(c4)CCC(=O)N(C)CC(=O)N[C@@H]3C2)CC1,-5,0.7
O=C(Nc1cccc(OCC(F)F)n1)N1CCCC1C1CCCO1 (stereo not given),-9,0.88
COc1cc2c(cc1OC)[C@H](C)N(C(=O)c1ccc3c(c1)C(=O)N(c1cc(Cl)ccc1Cl)C3=O)CC2,-7,0.86
CC(C)OC(=O)N1CCC2(CC1)C[C@@H](c1ccccc1)C(=O)N(C1CC1)C2,-7,0.79
Cc1cc(C(=O)N2CC(C)(C)[C@@H]2C2CC2)nc(C)n1,5,-0.7
COCCNCCOc1cc(C)ccc1C,-7,1.32

# Reference: ChEMBL document CHEMBL4888484, “Replenishing the malaria drug discovery pipeline: Screening and hit evaluation of the MMV Hit Generation Library 1 (HGL1) against asexual blood stage Plasmodium falciparum ,using a nano luciferase reporter read-out” (2022)
